Article PMC5515408
The other results are listed elsewhere or left out. At the low end of the ranking the order means little.

Biological target: MAX:MAX (p21) (UniProt P61244-2)
Test: protein-binding microarray (anti-MAX antibody)
Conditions: PBM: 15 mM Tris-HCl pH 7.5, 100 mM KCl, 0.075% NP40, 7.5 mM beta-mercaptoethanol, 375 ng/ul BSA, 8 ng/ul poly(dA-dT):(dA-dT), 550 ng complex, 60 min, room …; high values mean tight binding; double strand, one strand shown; sequences stand for … in CCGGC…TTAATAGCTAAGATTACTATATCGACG

| Sequence | binding signal (log2 normalized fluorescence) |
| --- | --- |
| TGCACCGTGGTA | 2.46 |
| TGAGGCCGAGTA | -1.09 |
| TGACACGTTAGA | 2.59 |
| TGAAAGCCCGTA | -0.796 |
| TGACGTTAGGTA | -0.444 |
| TGATTATATGTA | -0.986 |
| TGAGATAAAGTA | -1.13 |
| GCGTGCTAGTGA | 3.06 |
| TGATTAATTGTA | -1.24 |
| TGAATTGATGTA | -0.64 |
| TGAAACGTGGAA | 2.54 |
| TGACACTTGCTA | 0.728 |
| TGATACACGGTA | 0.764 |
| TGACACGCGGTC | 3.32 |
| TGAACAGCTGTA | 0.874 |
| TGAAAATTTGTA | -1.23 |
| TGAATATTCGTA | -0.831 |
| TGAGTAAGCGTA | -0.992 |
| TGAACTCTGGTA | -0.89 |
| TGAAGCCGTGTA | 0.0309 |
| TGACCCCTGGTA | -0.0978 |
| TGAAGCATCGTA | 0.0822 |
| TGACTATGGGTA | -0.778 |

| Sequence | binding signal (log2 normalized fluorescence) |
| --- | --- |
| TGATACTTCGTA | -0.951 |
| TGATTTGAGGTA | -0.917 |
| TGAGCTCTAGTA | -1.14 |
| TGAGAGGGAGTA | -0.678 |
| TGACACTGAGTA | -0.301 |
| TGAAATCCCGTA | -1.07 |
| TGATTCCCCGTA | -0.91 |
| TGAAGTACTGTA | -0.494 |
| TGAGGTTAGGTA | -0.698 |
| TGACTGTGGGTA | -0.258 |
| TGACCCGTAGTA | -0.458 |
| TGATAGAATGTA | -0.606 |
| ACACACGTGGTA | 3.32 |
| TGATGTCCCGTA | 0.0598 |
| TGATACCTAGTA | -1.04 |
| TGATCATAGGTA | -0.321 |
| TGAAAAGTTGTA | -1.06 |
| TGAAGAACCGTA | -0.66 |
| TGACGCTGCGTA | -0.187 |
| TGATTATCCGTA | -0.913 |
| TGAGACACAGTA | -0.227 |
| TGATGCTGAGTA | 0.00915 |
| TGACTAGGCGTA | -0.638 |

| Sequence | binding signal (log2 normalized fluorescence) |
| --- | --- |
| AGACACGCGATA | 2.93 |
| TGAAAATCTGTA | -0.972 |
| TGAAAGATTGTA | -0.981 |
| TGACTACCTGTA | -0.185 |
| TGATACACTGTA | -0.441 |
| TGATGCCGGGTA | -0.632 |
| TGATATATAGTA | -0.83 |
| TGATACCTGCTA | -0.26 |
| TGAAGGGTTGTA | -0.153 |
| TGACACGTGCGG | 3.31 |
| TGAACCTTGGTA | -0.578 |
| TGAAATTCTGTA | -0.972 |
| TGATGTCACGTA | 0.661 |
| TGACACGAACTA | 1.23 |
| TGAACGATGGTA | -0.302 |
| TGACACCTGGTG | 2.47 |
| TTTGGTAAGTAG | -1.42 |
| TGAAACCAAGTA | 0.0213 |
| TGACACGTGTCG | 3.18 |
| TGACTGCAGGTA | -0.0197 |
| TGACACGGGATA | 1.87 |
| TGATGCGCGGTA | 0.171 |
| TGATGCTTGGTA | -0.206 |
